# Source: PubChem BioAssay (NCI)
# Where “and” joins values, the source holds several entries; their conditions need not be identical. Equal values may be shown once.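 Cultured in 96-well plates, cells were exposed to test compound for 48 hours across five concentrations. GI50 is the concentration that inhibits growth by half. The concentration for full growth arrest is given as TGI.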
# System: NCI-H322M lung
# Test: NCI-60 cell line screen, 48 h
SMILES,TGI,GI50
CSCCCNC(=O)[C@H](CSC)NC(=O)c1csc(CCNC(=O)[C@@H](NSc2ccccc2[N+](=O)[O-])C(C)O)n1 (stereo partly drawn),> 100 µM,–
O=C(/C=C/C1C(=O)NC(=O)NC1=O)CC(=O)C(=O)Nc1cc(Cl)c(Cl)cc1Cl,> 100 µM,–
COC(=O)C(=O)C(C(=O)C(=O)Nc1cc(Cl)c(Cl)cc1Cl)c1nc2ccc([N+](=O)[O-])cc2[nH]c1=O (stereo not drawn),> 100 µM,–
CC(C)(C)[Si](C)(C)OC[C@H](/C=C\CCCC(=O)O)NC1(c2ccccc2)c2ccccc2-c2ccccc21,95.9 µM,–
O=C(/C=C/c1ccc([N+](=O)[O-])cc1)c1cccc(Nc2nc(Nc3ccccc3)nc(Nc3ccccc3)n2)c1,> 100 µM,> 100 µM
CC(C)C(NC(=O)C(Cc1ccccc1)NC(=O)[C@H]1CCC[C@H]1NC(=O)C(Cc1ccc(OC(C)(C)C)cc1)NC(=O)OC(C)(C)C)C(N)=O (stereo partly drawn),> 100 µM,–
C(=C/c1nc2ccccc2o1)/c1ccc2c(c1)OCO2,> 100 µM,–
N#Cc1nc(-c2cccc(-c3nc(C#N)c(N)o3)n2)oc1N,> 100 µM,–
O=c1[nH]c2ccc(CC(=S)N3CCCCC3)cc2s1,> 100 µM,–
CC(=O)NC(CCCN(Cc1ccccc1)C(=O)N(C)N=O)C(=O)NCc1ccccc1 (stereo not drawn),> 100 µM,–
Cc1ccc(S(=O)(=O)Nn2c(O)c(C#N)c(-c3ccc([N+](=O)[O-])cc3)c(C#N)c2=O)cc1,> 100 µM,–
O=C1CCC(=O)c2sccc2N1,> 100 µM,–
O=C(NOCCO)c1cc(CN2OCCCC2=O)c(F)c(F)c1Nc1ccc(I)cc1F,76.8 µM and > 10 µM,0.206 µM and 0.177 µM
Cc1c(Cl)cccc1NC(=O)c1sc2nc3c(cc2c1N)CCCC3,> 100 µM,> 88 µM
COC(=O)c1cc(/C=C\c2cc(OC)ccc2OC)ccc1OC,> 100 µM,–
c1cc2c(cc1C1=NCCN1)c1cc(C3=NCCN3)ccc1n2CC1CCCCC1,80.5 µM,–
O=C(Nc1ccc2ccccc2c1)c1cc2cc(CCl)ccc2oc1=O,> 100 µM,–
CCCN1CCC=C(c2ccc(Nc3nc(Nc4ccccc4C(N)=O)c4cc[nH]c4n3)c(C)c2)C1,> 25 µM,1.72 µM
COc1ccccc1NC(=S)N/N=C/c1cccc(C)n1,> 100 µM,–
CCCCCCCCCCCCCCCCCC(=O)NCC(COP(=O)(O)O)OCC (stereo not drawn),> 100 µM,–
N#Cc1nc(/C=C/c2cccnc2)oc1N,> 100 µM,–
O=C1C=C(N2CCN(CCOCCO)CC2)C(=O)c2c(O)ccc(O)c21,14 µM,–
O=c1[nH]c2ccc([N+](=O)[O-])cc2nc1/C=C(\O)c1ccccc1,52.7 µM,–
O=C(O)c1ccc(N/C(=C(/C(Cl)=C(Cl)Cl)[N+](=O)[O-])n2nnc3ccccc32)cc1,> 100 µM,–

SMILES,TGI,GI50
O=C(C=C=Nc1ccccc1)C(=O)N=C=Cc1ccccc1,> 52.5 µM,20.9 µM
CCOC(=O)C(C)N1C(=O)c2ccccc2S1(=O)=O (stereo not drawn),> 100 µM,–
Cc1ccc(/C=C2\N=C(N3CCCC(CO)C3)NC2=O)cc1 (stereo not drawn),> 100 µM,–
CCCCCCCCCCCCCCCCOCC(O)CO (stereo not drawn),38.3 µM,–
COC(=O)c1ccc(NCC2=C(Br)C(=O)C=CC2=O)cc1Cl,> 100 µM,–
COc1ccc(C)cc1C1CCC(=O)O1 (stereo not drawn),> 100 µM,–
[Cl-].[Fe+2].c1ccc(-c2ccnc3c2ccc2c(-c4ccccc4)ccnc23)cc1.c1ccc(-c2ccnc3c2ccc2c(-c4ccccc4)ccnc23)cc1.c1ccc(-c2ccnc3c2ccc2c(-c4ccccc4)ccnc23)cc1,> 100 µM,–
S=c1nc[nH]c2c1ncn2C1CCCO1 (stereo not drawn),> 100 µM,–
CN(C)CN(C)c1nc(N(C)C)nc(N(C)CN(C)C)n1,> 100 µM,–
O=C(/C=C/c1ccccc1)CCC1C(=O)NC(=S)NC1=O,> 100 µM,–
CN1CCN(c2ccc3nc(-c4ccc(OCCCCN5CCN(CCCCN6C(=O)c7cccc8cccc(c78)C6=O)CC5)cc4)[nH]c3c2)CC1,> 100 µM,> 100 µM
Cc1ccccc1NC(=O)Cc1csc(N=Nc2c(O)[nH]c3ccccc23)n1,81.7 µM,–
CC1(C)CC(=O)C2=C(C1)OC1(CC2c2ccc(Cl)cc2)CC(c2ccc(Cl)cc2)C2=C(CC(C)(C)CC2=O)O1 (stereo not drawn),32.2 µM,–
CC(=O)OCC1OC(n2c(-c3ccccc3)c(N=Nc3ccc(C)cc3)c(C)c(C#N)c2=S)C(OC(C)=O)C(OC(C)=O)C1OC(C)=O (stereo not drawn),> 100 µM,–
CCCCCCCCCCCCO[P+](=O)OCCCCCCCCCCCC,> 100 µM,–
CN=C(N)N/N=C(\C)c1ccc2c(c1)Cc1ccccc1-2,6.1 µM,2.13 µM
CCOC(=O)C1=C(C)N(C2OC(COC(=O)c3ccccc3)C(OC(=O)c3ccccc3)C2OC(=O)c2ccccc2)C(=S)NC1c1ccccc1 (stereo not drawn),> 100 µM,–
C=CC(C)(O)CC/C=C(\CO)C(=O)OC1C(C)OC(O[C@](C)(C=C)CC/C=C(\CO)C(=O)O[C@H]2C[C@@]3(C(=O)OC4OC(CO)C(O)C(O)C4OC4OC(C)C(OC5OC(CO)C(O)C5O)C(OC5OC(CO)C(O)C(O)C5O)C4O)C(CC2(C)C)C2=CCC4[C@@]5(C)CC[C@H](OC6OC(COC7OC(C)C(O)C(O)C7OC7OCC(O)C(O)C7O)C(O)C(O)C6NC(C)=O)C(C)(C)C5CC[C@@]4(C)[C@]2(C)C[C@H]3O)C(O)C1O (stereo partly drawn),0.294 µM,0.0793 µM
COC(=O)C(NC(=O)OC(C)(C)C)P(=O)(OC)OC (stereo not drawn),> 100 µM,–
O=C1/C(=C\c2ccccc2)C2OCC=C3CN4CCC56c7ccccc7N1C5C2C3CC46 (stereo not drawn),> 100 µM,89.9 µM
CC/C(N)=N\NC(=O)OC(C)(C)C,> 100 µM,–
Oc1ccc(Cl)cc1/C=N\NC(=S)N/N=C/c1cc(Cl)ccc1O,> 100 µM,1.69 µM
COc1ccc(C(=O)c2cc3c(N)c(C(=O)Nc4cccc(OC)c4)sc3nc2C)cc1,> 100 µM,0.853 µM
